Data on 47 molecules can be found in PubChem BioAssay AID1159614 (National Center for Advancing Translational Sciences (NCATS), 2016).

Screen size: about 45,000 compounds; about 65 (0.1%) were called active. Calls come from the whole dose curve; as a rule, active = well fitted activation curve with a large enough effect; inconclusive = small, poorly fitted or top-dose-only effect; inactive = no such curve, though single readings can be large or run the other way. This is one part of the list.

Sequence of UniProt P54803 (P54803 whole entry, looked up): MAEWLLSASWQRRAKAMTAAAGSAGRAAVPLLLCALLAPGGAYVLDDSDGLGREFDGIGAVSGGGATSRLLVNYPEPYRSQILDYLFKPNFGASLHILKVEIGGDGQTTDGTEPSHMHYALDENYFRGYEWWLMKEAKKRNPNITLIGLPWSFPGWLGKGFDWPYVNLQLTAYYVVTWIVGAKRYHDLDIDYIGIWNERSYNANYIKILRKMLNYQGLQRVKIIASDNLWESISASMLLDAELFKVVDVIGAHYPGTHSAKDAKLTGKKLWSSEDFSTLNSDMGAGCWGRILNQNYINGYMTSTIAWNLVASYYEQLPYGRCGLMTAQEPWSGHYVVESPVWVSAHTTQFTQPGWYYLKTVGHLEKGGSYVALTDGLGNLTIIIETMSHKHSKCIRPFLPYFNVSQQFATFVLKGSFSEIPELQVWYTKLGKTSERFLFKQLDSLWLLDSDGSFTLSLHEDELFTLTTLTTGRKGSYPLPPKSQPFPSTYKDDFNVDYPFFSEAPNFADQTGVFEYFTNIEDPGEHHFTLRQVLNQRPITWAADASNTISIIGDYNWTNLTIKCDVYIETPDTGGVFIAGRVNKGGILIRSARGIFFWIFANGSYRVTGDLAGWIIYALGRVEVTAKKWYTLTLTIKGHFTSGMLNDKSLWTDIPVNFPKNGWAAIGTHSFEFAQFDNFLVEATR

The assay has as its target Galactocerebrosidase (Homo sapiens) (UniProt P54803). The assay can be described thus: A Novel Cell-Based Assay to Identify Small Molecules for B -Galactocerebrosidase. Note: 0% is about no effect; nearly all actives have a fitted effect of over 65% in size. As to conditions: 145M-Twi-hGALC-G270D cells, HMU-beta-Gal fluorescence, 48 h; series mostly up to 57.5 µM; activation: at the top concentration. The method in brief:
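qHTS, 1536-well; 145M-Twi-hGALC-G270D cells (WT line also made) in DMEM/F12 + 10% FBS; compound incubation on live cells; HMU-β-gal 0.1 mM final, pH 5.2, NaTC; carbonate stop; fluorescence increase = enhanced residual activity.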
In the case of `Clc1ccc(-c2nc3ccccn3c2Nc2ccc3c(c2)OCCO3)s1`, the “activation” value was inactive: 10.9%.
The value for `Cc1ccc(N(CC(=O)N2CCN(c3cc(Cl)ccc3C)CC2)S(=O)(=O)c2c(C)noc2C)cc1` was inactive: -9.41%; that for `Cc1cccc(Cn2c(=O)n(-c3ccc(Cl)c(Cl)c3)c(=O)c3c(C)c(C)sc32)c1` was inactive: -9.49%.
For the molecule `CCc1ccc(N2CCn3c2nc2c3c(=O)n(CCc3ccccc3)c(=O)n2C)cc1`, the “activation” value is inactive: 3.91%.
In the case of `CCOC(=O)c1cnc2ccccc2c1Nc1ccc(N2CCOCC2)cc1`, the “activation” value is inactive: -8.68%.
With `COc1ccccc1NC(=O)c1nc(SCc2ccc(F)cc2)ncc1Cl` the figure was inactive: 5.06%.
Consider `CCOCCc1nnc(NC(=O)C(=O)c2cc(C)n(-c3cccc(Cl)c3)c2C)s1`, for which the “activation” value was inactive: -10.9%.
Take `Cc1ccc2nc(NC(=O)CSc3nccn3Cc3ccccc3)sc2c1`: the “activation” value is inactive: -29.7%.
The value for `Cc1ccc(C)c(N2CCN(C(c3ccc(F)cc3)c3nnc(-c4ccccc4)o3)CC2)c1` (configuration not stated) was inactive: -24.3%; that for `Cc1ccccc1CSc1cn(CC(=O)N2CCCC2)c2ccccc12` was inactive: -5.75%; that for `CCN(Cc1ccccc1)C(=O)Cn1c(=O)oc2cc(S(=O)(=O)N3CCCCCC3)ccc21` was inactive: -19.2%.
With `Cc1noc2ncnc(NCc3ccccc3Cl)c12` the figure was inactive: -36.2%; with `CCOc1ccc(NC(=O)C(=O)NCCc2csc(-c3ccc(C)cc3)n2)cc1`, inactive: -1.35%; with `COc1ccc(NC(=O)c2sc3nc(C)c(C(=O)Nc4ccc(C)cc4C)c(-c4cccs4)c3c2N)cc1`, inactive: -7.26%.
On to `COc1ccc(OC)c(NC(=O)c2sc3nc4c(cc3c2N)CCCCCC4)c1`, for which the “activation” value is inactive: -16.6%.
`CCC(=O)N1CCc2cc(S(=O)(=O)NCCC(=O)Nc3ccc(OC)c(OC)c3)ccc21`: the “activation” value is inactive: -11%.
For the molecule `CCOc1ccc(-c2cc(C(=O)N3CCN(c4ccc(C)cc4)C(C)C3)c3ccccc3n2)cc1` (configuration not stated), the “activation” value is inactive: -9.39%.
Consider `Cc1cccc(N2CCN(c3ncnc4c3c(-c3ccccc3)cn4-c3ccccc3)CC2C)c1` (configuration not stated), for which the “activation” value is inactive: 3.99%.
For the molecule `COc1cc(-c2nnn(CC(=O)NCc3ccccc3)n2)cc(OC)c1OC`, the “activation” value was inactive: -13%.
Consider `COc1ccc(NC(=O)CSc2nnc3c(C)cc4ccccc4n23)cc1`, for which the “activation” value was inactive: -11.4%.
With `Cc1cnc2c(c1SCC(=O)NCc1ccc(F)cc1)c(=O)n(C)c(=O)n2C`, the “activation” value was inactive: -4.36%.
As for `CCCCNc1nc2c(c(=O)n(Cc3ccc(Cl)c(Cl)c3)c(=O)n2C)n1C`, the “activation” value was inactive: -14.3%.
Regarding `CC(C)(C)c1ccc(C(=O)NC(Cc2c[nH]c3ccccc23)C(=O)OCC(=O)c2ccc(Cl)cc2)cc1` (configuration not stated), the “activation” value was inactive: -17.4%.
Take `Cc1ccc(CNC(=O)CSc2nc3n[nH]c(C)c3c(=N)n2-c2cccc(C)c2)cc1`: the “activation” value was inactive: -24.1%.
As to `COc1ccc(-c2noc(-c3ccc(N4CCC(C)CC4)c([N+](=O)[O-])c3)n2)cc1OC`, the “activation” value is inactive: 2.88%.
`COc1ccc(N(CC(=O)N2CCN(c3ccc(F)cc3)CC2)S(=O)(=O)c2c(C)n[nH]c2C)cc1`: the “activation” value is inactive: -6.88%.
As for `CCOc1ccc(NC(=O)Cn2cc(S(=O)(=O)N3CCN(c4ccccc4F)CC3)c3ccccc3c2=O)cc1`, the “activation” value is inactive: -11.9%.
The value for `O=C(NCCc1csc2nc(-c3cccc(F)c3)nn12)c1ccc(Br)o1` was inactive: -6.62%; that for `COc1ccc(NC(=O)c2oc3ccc(S(=O)(=O)N(C)C4CCCCC4)cc3c2C)cc1` was inactive: -11.2%; that for `CCOC(=O)c1scc(-c2ccccc2)c1S(=O)(=O)N1CCN(c2ccccc2OC)CC1` was inactive: -11.5%.
With `Cc1ccc(CNC(=O)c2cccc(-n3cnc4cccnc43)c2)cc1` the figure was inactive: -2.7%; with `OC(C#CCN1CCCC1)(c1ccccc1)c1ccccc1`, inactive: -16%.
With `CCc1ccc(NC(=O)CCNS(=O)(=O)c2ccc3c(c2)CCCC(=O)N3)cc1` the figure was inactive: 1.56%; with `COc1cccc(C(=O)Nc2c3c(nn2-c2ccc(Cl)cc2)CS(=O)(=O)C3)c1`, inactive: -21.9%.
Consider `CCCN(C(=O)c1cc2c(s1)-c1c(C)cccc1OC2)c1ccc(OCC)cc1`, for which the “activation” value is inactive: -2.99%.
`CC(C)c1ccc(Nc2nc3c(S(=O)(=O)c4ccc(Br)cc4)nnn3c3ccsc23)cc1`: the “activation” value was inactive: -4.2%.
As for `COc1ccc(-c2nn(-c3cccc([N+](=O)[O-])c3)c3c2cnc2cc4c(cc23)OCO4)cc1`, the “activation” value was inactive: -10.6%.
As to `Cc1cc2nc(-c3cccc(NC(=O)CSc4ccc(Cl)cc4)c3)oc2cc1C`, the “activation” value is inactive: -12.6%.
Regarding `COc1cccc(NS(=O)(=O)c2ccc3c(c2)CCCN3C(=O)C2CCC2)c1`, the “activation” value was inactive: 5.46%.
The value for `CCOC(=O)c1cc(-c2ccc(C)cc2)n(CC(=O)NC2CCCCCC2)c1C` was inactive: 1.46%; that for `CCSc1nnnn1-c1cccc(C(=O)O)c1` was inactive: -8.98%.
Take `C=CCC(CC=C)(CNC(=O)C(=O)Nc1ccc(C(=O)OCC)cc1)c1ccccc1`: the “activation” value was inactive: 5.75%.
`COC(=O)c1ccccc1NC(=O)c1cc2c(-c3ccc(OC)c(OC)c3)nn(C)c2s1`: the “activation” value was inactive: -14.1%.
`O=C(/C=C/c1cn(CC(O)CN2CCCCCC2)c2ccccc12)c1ccc(Br)cc1` (configuration not stated): the “activation” value is inactive: 21.1%.
For `Cc1ccc(-c2nc3ccccn3c2Nc2ccc3c(c2)OCO3)o1`, the “activation” value was inactive: -5.82%.
The value for `Cc1ccc(NC(=O)C(Cc2ccccc2)n2cccc2)cc1C` (configuration not stated) was inactive: -3.04%; that for `CCC(=O)Nc1sc2c(c1C(=O)Nc1cccc(C)c1)CCCC2` was inactive: -4.27%.
